From PubChem BioAssay AID1508642 (National Center for Advancing Translational Sciences (NCATS), 2021)
The whole screen tested about 43,000 compounds, of which about 200 (0.47%) were called active. Another 12% or so got no clear call; they are omitted. Calls come from the whole dose curve; as a rule, active = well fitted cell-killing curve with a large enough effect; inconclusive = small, poorly fitted or top-dose-only effect, or effect the other way; inactive = flat fitted curve, though single readings scatter. The list shows a part of the results.

experiment: Cell viability qHTS assay in S16 Pmp22-F2sN cells; conditions: S16 Pmp22-F2sN Schwann cells (luciferase reporters placed in the Pmp22 gene) viability, CellTiter-Glo, 24 h; series mostly up to 57.5 µM; activity change, negative = cytotoxicity: at the top concentration; note: nearly all actives have a fitted effect of over 65% in size
Summary of the method: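 Rat S16 Schwann reporter line, 24 h treatment with library compounds delivered at 23 nL per well. Cell viability by CellTiter-Glo luminescence.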
% is set by controls: 0 for no effect and ±100 for the full control effect.

Row | SMILES | activity change, negative = cytotoxicity
1 | CC(C)CCN(C(=O)Nc1ccc(Cl)c(Cl)c1)C1CCN(C(C)C)CC1 | inactive: -21.8%
2 | Cc1cc(C(=O)Nc2c(C)cccc2C)n(-c2ccccc2)n1 | inactive: -4.11%
3 | COc1ccc(NC(=O)C2CCN(C3=NS(=O)(=O)C(c4ccc(C)c(C)c4)=C3C)CC2)c(OC)c1 | inactive: -17.7%
4 | O=C(c1noc2c1CCCCC2)N1CCN(c2cccc(Cl)c2)CC1 | inactive: 0.569%
5 | CCN1CCN(c2nnc(-n3cccc3C(=O)NCc3ccccc3OC)s2)CC1 | inactive: -0.298%
6 | O=C(c1cc2ccc3cccnc3c2[nH]1)N1CCCCC1 | inactive: -6.88%
7 | COc1ccc(C)cc1NS(=O)(=O)c1cnc(N)nc1 | inactive: 10.2%
8 | O=C(NCCc1csc(-c2cccc(F)c2)n1)C(=O)Nc1cc(F)ccc1F | inactive: 14.4%
9 | Cc1ccc(C)c(NC(=O)Cc2coc3cc(C)cc(C)c23)c1 | inactive: -0.351%
10 | O=C(CC1N=C2c3ccccc3N=C(SCC(=O)Nc3ccc(F)cc3)N2C1=O)NCc1ccco1 (stereo not given) | inactive: 3.71%
11 | CCOc1ccc2nc(N3CCCC(C(=O)Nc4ccc(OC)cc4)C3)sc2c1 (stereo not given) | inactive: 7.01%
12 | COc1ccc(CCNC(=O)c2c(O)nc3ccccn3c2=O)cc1OC | inactive: -6.46%
13 | COc1ccccc1NC(=O)CSc1oc(-c2ccco2)nc1S(=O)(=O)c1ccc(C)cc1 | inactive: 0.868%
14 | COc1ccc(NC(=O)c2csnn2)cc1Cl | inactive: -5.91%
15 | CCc1nn2c(=O)cc(COC(=O)c3ccc(NC(=O)COc4ccccc4C)cc3)nc2s1 | inactive: 3.38%
16 | Cc1ccc(C(=O)Nc2nnc(S(=O)(=O)N(C)Cc3ccc(Cl)cc3)s2)cc1 | inactive: -6.2%
17 | Clc1ccc(-c2cc3ncc4c(n3n2)-c2ccccc2OC4)cc1 | inactive: 16.9%
18 | O=C(Nc1ccccc1-c1nc2ccccc2s1)c1ccc(F)cc1 | inactive: 6.66%
19 | Cc1ccc(CN2CCCn3nc(C(=O)NCc4ccc(N(C)C)cc4)cc3C2=O)cc1 | inactive: -8.91%
20 | COc1ccc(CCNc2nc3c(-c4cccc(C(F)(F)F)c4)nnn3c3ccccc23)cc1OC | inactive: 11.5%
21 | CCOc1ccc(NC(=O)c2cc3cc(C)ccc3n2C)cc1 | inactive: 0.578%
22 | CC(C)CNC(=O)Nc1cc(C(=O)NCc2ccc(C(C)C)cc2)ccc1N1CCCC1 | inactive: -2.4%
23 | CC1CCN(c2nc(-c3ccc(C(C)(C)C)cc3)nc3ccccc23)CC1 | inactive: -2.45%
24 | CCC(=O)N1CCc2cc(S(=O)(=O)NC(C(=O)NCCc3cccc(C)c3)C(C)C)ccc21 (stereo not given) | inactive: -1.18%
25 | CN(Cc1ccco1)S(=O)(=O)c1nnc(NC(=O)c2ccccc2Cl)s1 | inactive: -2.34%

Row | SMILES | activity change, negative = cytotoxicity
26 | Cc1nn(C)c(C)c1CCNC(=O)Nc1ccccc1C(F)(F)F | inactive: -16.6%
27 | COc1ccc(N2CC(NC(=O)/C=C\c3ccccc3)CC2=O)cc1OC (stereo not given) | inactive: 14.9%
28 | CCN(CC)c1nn2c(=O)c(C(=O)NCc3ccc(N(C)C)cc3)cnc2s1 | inactive: -1.58%
29 | Cc1ccc(C2c3[nH]c4ccccc4c3CCN2C(=O)CSCc2ccc(F)cc2)cc1 (stereo not given) | inactive: -18.6%
30 | O=C(NCCc1csc(-c2ccc(F)cc2)n1)c1cccc(F)c1 | inactive: 24.9%
31 | COc1ccccc1CNC(=O)C1CCN(S(=O)(=O)c2cn(C)cn2)CC1 | inactive: 6.66%
32 | CCc1ccccc1N(C)C(=O)c1sc2nc3n(c(=O)c2c1C)CCCCC3 | inactive: -5.44%
33 | COc1ccc(C(=O)CCC(=O)Nc2ccc(C)c(Cl)c2)cc1 | inactive: -0.182%
34 | CCc1cccc(C)c1NC(=O)c1cnn(-c2ccc(OC)cc2)c1C1CCN(C(=O)OC(C)(C)C)CC1 | inactive: -11.4%
35 | COc1ccc(NC(=O)c2nc(-c3ccc(C)cc3)n3c2CCCCC3)c(OC)c1 | inactive: 8.28%
36 | Cc1ccc(SCC(=O)Nc2ccc3oc(-c4ccccc4F)nc3c2)cc1 | inactive: 4.59%
37 | CCOC(=O)c1ccccc1NC(=O)c1cnc(N2CCOCC2)c2ccccc12 | inactive: -0.581%
38 | Cc1cc2oc(C(=O)N(Cc3ccco3)Cc3ccccc3Cl)c(C)c2cc1C | inactive: -20%
39 | CC1CCc2onc(C(=O)N3CCN(c4cccc(Cl)c4)CC3)c2C1 (stereo not given) | inactive: -13.4%
40 | CC(C)Oc1ccc(CNC(=O)c2ccc(NC(=O)N3CC(C)Sc4ccccc43)cc2)cc1 (stereo not given) | inactive: -0.381%
41 | O=C(/C=C/c1ccccc1)Nc1nc2n(n1)C(c1ccc(F)cc1)C=C(c1ccccc1)N2 (stereo not given) | inactive: 1.99%
42 | CCOC(=O)CNC(=O)c1cc2c(=O)n3cccc(C)c3nc2n1C | inactive: 11.1%
43 | COc1ccc(C(=O)Nc2ccc3oc(-c4cccnc4)nc3c2)cc1OC | inactive: 22.7%
44 | CCOc1ccc(CNC(=O)c2ccc3c(c2)nc2n3CCCCC2)cc1 | inactive: -0.0084%
45 | COCCn1c(=O)[nH]c2cc(C(=O)Nc3ccc(OC)cc3)ccc2c1=O | inactive: 2.67%
46 | CCCCCn1c(=O)[nH]c2cc(C(=O)NC(C)CC)ccc2c1=O (stereo not given) | inactive: 17%
47 | CC(C)(C)c1ccc(OCCOCCn2c(-c3ccc(Cl)cc3)nc3ccccc3c2=O)cc1 | inactive: -12%
48 | O=C(COC(=O)c1cccc(NC(=O)c2ccc(Br)cc2)c1)c1ccc(Cl)cc1 | inactive: 0.278%
49 | CCn1c2ccccc2c2cc(NC(=O)COc3cc(C)ccc3C)ccc21 | inactive: 6.9%
50 | Cc1cccc(Cn2c(COc3ccccc3)nc3ccccc32)c1 | inactive: 0.0509%

Row | SMILES | activity change, negative = cytotoxicity
51 | Cc1ccc2c(c1)cc(C(=O)NCc1ccccc1C)n2C | inactive: 7.49%
52 | CCc1cnc2c(c1SCC(=O)Nc1ccc(C(=O)OC)cc1)c(=O)n(C)c(=O)n2C | inactive: -24.7%
53 | CC(C)Oc1ccc(CNC(=O)C2CCN(Cc3cc4ccccc4n3Cc3ccccc3)CC2)cc1 | inactive: -2.29%
54 | O=C(CSc1nc(=O)n(Cc2ccco2)c2c1CCC2)NCc1ccc(Cl)cc1 | inactive: 13.2%
55 | Cc1ccc(NC(=O)CCn2c(=O)c3cccn3c3ccccc32)cc1Cl | inactive: -1.62%
56 | COc1ccc(N2CC(NC(=O)C(=O)c3c(C)[nH]c4ccccc34)CC2=O)cc1 (stereo not given) | inactive: 1.59%
57 | COc1cc(OC)c(NC(=O)Cn2cnc3sc(C)c(S(=O)(=O)N4CCC(C)CC4)c3c2=O)cc1Cl | inactive: -11.5%
58 | CCN(Cc1ccccc1)C(=O)Cn1c(=O)n(-c2ccc(Cl)c(Cl)c2)c(=O)c2c(C)c(C(=O)N(C)C)sc21 | inactive: -3.28%
59 | COc1ccccc1CNC(=O)CSc1nc(=O)[nH]c2c1CCCC2 | inactive: 3.43%
60 | Cc1cc(C)n(-c2nc3ccccc3nc2Nc2cc(Cl)ccc2C)n1 | inactive: 5.03%
61 | Cc1cc(C)c2nc(N(Cc3cccnc3)C(=O)Cc3ccccc3)sc2c1 | inactive: -9.16%
62 | Cc1cc(NC(=O)Nc2nnc(N3CCCCC3)s2)ccc1Br | inactive: -0.192%
63 | NS(=O)(=O)c1ccc(NC(=O)c2csnn2)cc1 | inactive: 6.18%
64 | COc1ccc(OC)c(NC(=O)Cn2cnc3onc(-c4ccc(Cl)cc4)c3c2=O)c1 | inactive: -20.8%
65 | COc1ccc(NC(=O)CN(C)S(=O)(=O)c2ccc3c(c2)c(=O)n(C)c(=O)n3C)cc1 | inactive: -0.785%
66 | Cc1cc(C)cc(NC(=O)COCc2cc(-c3ccc4c(c3)OCO4)on2)c1 | inactive: 3.73%
67 | Cc1cc2c(cc1S(=O)(=O)NCc1ccccc1Cl)OCC(=O)N2 | inactive: -0.496%
68 | COc1cccc(-c2nc(CS(=O)(=O)CC(=O)NCCc3ccc(Cl)cc3)c(C)o2)c1 | inactive: -4.26%
69 | CC1CCCCN1C(=O)CSc1c2c(nc3cc(Cl)ccc13)CCCC2 (stereo not given) | inactive: -3.23%
70 | COc1cccc(N2CCN(C(=O)C3CCN(S(=O)(=O)c4cn(C)cn4)CC3)CC2)c1 | inactive: 19.2%
71 | CCOCCn1c(=O)c2c(nc3n2CCN3c2ccc(C)c(C)c2)n(C)c1=O | inactive: -0.0731%
72 | CCc1ccc(-n2nc(CO)c(C(=O)NCc3cccs3)n2)cc1 | inactive: -16.3%
73 | COc1ccc(-c2nc3ccc(Cl)cn3c2Nc2ccc(C)cc2)cc1 | inactive: -4.28%
74 | COc1ccc(OCC2c3cc(OC)c(OC)cc3CCN2C(=O)c2c(F)cccc2F)cc1 (stereo not given) | inactive: -2.93%
75 | CCCCNC(=O)c1cn(C)c2ccc(S(=O)(=O)N3CCCC3)cc2c1=O | inactive: -19%

Row | SMILES | activity change, negative = cytotoxicity
76 | COc1ccc(OC)c(NC(=O)CCNC(=O)Cn2cnc3ccccc3c2=O)c1 | inactive: 5.41%
77 | Fc1ccc(Nc2c(-c3ccccn3)nc3ccc(Cl)cn23)cc1 | inactive: -0.911%
78 | O=C(NCCc1ccccc1)c1nn(-c2ccccc2Cl)nc1CO | inactive: 0.561%
79 | COc1cccc(NC(=O)Cc2csc(COc3cccc(C)c3)n2)c1 | inactive: 13.9%
80 | COc1ccc(CCNC(=O)c2cc(=O)[nH]c3ccc(S(=O)(=O)N4CCCCC4C)cc23)cc1OC (stereo not given) | inactive: 8.87%
81 | CCOCCCNC(=O)c1c(NC(=O)c2nc(SC)ncc2Cl)sc2c1CCCC2 | inactive: 8.34%
82 | Cc1cn2c(=O)cc(COC(=O)c3ccc(NC(=O)C(C)Oc4ccccc4)cc3)nc2s1 (stereo not given) | inactive: 9.16%
83 | COCCn1c(C)cc(O)c(C(c2ccc(OC)cc2)N2CCN(c3ccccc3)CC2)c1=O (stereo not given) | inactive: -0.47%
84 | Cc1ccc(C)c(-n2nnc(C(=O)Nc3ccc(Br)cc3)c2C)c1 | inactive: -29.7%
85 | Cc1ccc(C)c(N2CCN(C(=O)CN3C(=O)COc4ccc(S(=O)(=O)N5CCC(C)CC5)cc43)CC2)c1 | inactive: -0.926%
86 | COc1ccc(NC(=O)c2c(C)oc3ccc(O)c(CN4CCCCCC4)c23)cc1 | inactive: -9.4%
87 | CCn1nnc2cc(C(=O)Nc3ccc(OC)cc3)ccc21 | inactive: 6.3%
88 | Cc1ccc(N2CCN(S(=O)(=O)c3ccc(-n4cnnn4)cc3)CC2)c(C)c1 | inactive: 0.108%
89 | Cc1ccc(OCC(=O)Nc2ccc3c(c2)sc(=O)n3C)cc1 | inactive: -1.51%
90 | CCOC(=O)c1c(NC(=O)COc2ccc(CC)cc2)sc2c1CCCC2 | inactive: 13.2%
91 | Cc1ccc(N2C(=O)CS(=O)(=O)C23C(=O)N(Cc2ccccc2C)c2ccccc23)cc1Cl (stereo not given) | inactive: 5.77%
92 | CN1CCN(C(=O)Cn2c(-c3cccs3)cc3ccccc32)CC1 | inactive: -1.63%
93 | COc1ccc(NC(=O)Cn2nc(-c3ccccc3)c3cnc4ccc(C)cc4c32)cc1 | inactive: -5.92%
94 | CCCNC(=O)c1ccc2c(c1)nc(C)n2-c1cccc(C)c1 | inactive: -24.1%
95 | Cc1ccc2c(=O)c(C(=O)c3ccccc3)cn(CC(=O)Nc3ccc(C)c(Cl)c3)c2n1 | inactive: -27.9%
96 | Cc1nn(C)c2c1c(C(F)(F)F)cc(=O)n2C(C)C(=O)NCCC(C)C (stereo not given) | inactive: 6.61%
97 | Cc1ccc(-c2nc(C(=O)N3CCN(c4ccccc4)CC3)c3n2CCCCC3)cc1 | inactive: 20.1%
98 | COc1ccc(NC(=O)C(NC(=O)C2CCC(C)CC2)C(C)C)cc1 (stereo not given) | inactive: 9.22%
99 | CCC(Sc1ncccc1C(=O)Oc1ccccc1Cl)C(=O)Nc1ccccc1OC (stereo not given) | inactive: -3.23%
100 | COc1cccc(Cn2ccn(-c3ccc(F)cc3)c(=O)c2=O)c1 | inactive: 14.8%
